In the RNAGym collection of RNA variant scans (doi:10.1093/nar/gkz1192):
The source gives no read counts; variants with many changes may rest on few reads.

B1: CPEB3 Ribozyme (parent)
chain: UAACAGGGGGCCACAGCAGAAGCGUUCACGUCGCAGCCCCUGUCAGAUUCUGGUGAAUCUGCGAAUUCUGCUGUAUAUCUC

Variants of: B1
Assay: self-cleavage, relative activity (ratio to wild type); higher = more cleavage; in vitro, sequencing
How it was run: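 Relative activity compares each variant's cleaved/total read fraction with that of the unmutated ribozyme. To get these fractions, barcoded CPEB3 ribozyme libraries from rounds of error-prone PCR were transcribed with T7 RNA polymerase for 5 hours at 37°C and then given 15 min of DNase I treatment before EDTA was added. The RNAs were reverse transcribed with template switching and sequenced on Illumina, and DNA sequencing linked barcodes to variants. A minimum of 5 reads applied, and three batches were averaged.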

Variant	self-cleavage
U26C U49A U51A	0.19
U26C U49A U54A	0.15
U26C U49A U58G C62U A77G	0.13
U26C U49A U76C	0.15
U26C U49C A56G	0.48
U26C U49C A64C U67C	0.12
U26C U49C C50A U60A	0.17
U26C U49C C59U U67C U74A	0.11
U26C U49C G53A A77G	0.14
U26C U49C G55A U60C	0.1
U26C U49C G55A U72C A77C	0.12
U26C U49C U54C A64G C81U	0.22
U26C U49C U78C	0.16
U26C U51A A56G	0.43
U26C U51A G55C	0.26
U26C U51A U58C U60C A77G	0.11
U26C U51A U69A U74C	0.11
U26C U51C A56G U78C	0.16
U26C U51C A65G	0.48
U26C U51C U54C U72A	0.45
U26C U51C U69A	0.38

Variant	self-cleavage
U26C U51C U72G	0.3
U26C U54A A64U U72A	0.21
U26C U54A U66C U80G	0.18
U26C U54A U72C	0.5
U26C U54C A56G	0.16
U26C U54C A56U A77C	0.1
U26C U54C C62U U78C	0.05
U26C U54C G55A	0.18
U26C U54C U60A A64U U78C	0.08
U26C U54C U67C C68U	0.16
U26C U54C U69C	0.35
U26C U54G A57G	0.42
U26C U58A A65U	0.16
U26C U58G C62U G70C U72A	0.08
U26C U60A A75U	0.42
U26C U60C G70A C79U	0.16
U26C U60C G70A U80C	0.08
U26C U60G A64G A65G C68U	0.14
U26C U60G A64G U76G	0.07
U26C U60G U66G	0.1
U26C U66A U72A	0.12

Variant	self-cleavage
U26C U66C U80C	0.22
U26C U67A A77G	0.07
U26C U67C U74C	0.19
U26C U69C A75G	0.11
U26C U69G U74C A77G	0.37
U26C U72C U76G	0.55
U26C U78C U80C	0.3
U26G A35G U67C C81U	0.12
U26G A45G A47U A65G U67C	0.1
U26G A45G G52A C71U	0.06
U26G A45G U66G	0.19
U26G A47G U72A U76A	0.35
U26G A47G U80C	0.46
U26G A56G U69A U80A	0.06
U26G A56G U76A	0.32
U26G C29A A45G A64U	0.12
U26G C32A U58C U60A A64G	0.12
U26G C39U A56G U60A A65G	0.13
U26G C39U A56G U69C	0.07
U26G C44G C62A	0.07
U26G C50U A64U A75U U76C	0.05

Variant	self-cleavage
U26G G30C C81U	0.18
U26G G46A U72A	0.19
U26G U31A U41C U48C A64G	0.09
U26G U31C A45U U58A U69A U72C	0.05
U26G U41A A57G G61C U74C	0.4
U26G U41C A45G U51C U58C	0.38
U26G U43A U67C A77G	0.15
U26G U43A U67C U72C	0.06
U26G U49C U80C	0.49
U26G U51A A56U	0.13
U26G U67C U72C	0.11
C27A A28G A35G C68U U69C	0.16
C27A A28G C39A U41C U43A	0.09
C27A A28G U41C U69C U74A U76C	0.16
C27A A28U U43A	0.25
C27A A35G C50A	0.19
C27A A45C A64G	0.06
C27A A45G A47G	0.13
C27A A47G A56U	0.08
C27A A47G U51A	0.23
